Experimental data from PubChem BioAssay (NCATS).
The shares of active, inactive and inconclusive entries below differ from those in the screen. For some of these results: No potency is given beside an inconclusive call; the fits are too rough. For some of these results: “Side channel” marks fits to a control or component signal instead of the main read-out. Active and inactive are the calls of the source. Unless noted, calls come from the whole dose curve; as a rule, active = well fitted curve in the direction sought with a large enough effect; inconclusive = small, poorly fitted or top-dose-only effect, or another doubt; inactive = no such curve, though single readings can be large; an effect the other way counts as inactive or inconclusive.

Legend:
[1] = target: Retinoic acid receptor RXR-alpha (Homo sapiens) (UniProt P19793); test: qHTS assay for small molecule agonists of retinoid X receptor alpha signaling (AID 588544; calls by dose curve; note: potency is the fitted concentration of half-maximal effect;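 for activation: 0% = DMSO basal wells and 100% = reference agonist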); conditions: HEK293T RXRa-UAS-bla, beta-lactamase reporter, 18 h; activation: at 76.7 µM (top of the series) unless noted
Chain of UniProt P19793 (P19793 whole entry, looked up): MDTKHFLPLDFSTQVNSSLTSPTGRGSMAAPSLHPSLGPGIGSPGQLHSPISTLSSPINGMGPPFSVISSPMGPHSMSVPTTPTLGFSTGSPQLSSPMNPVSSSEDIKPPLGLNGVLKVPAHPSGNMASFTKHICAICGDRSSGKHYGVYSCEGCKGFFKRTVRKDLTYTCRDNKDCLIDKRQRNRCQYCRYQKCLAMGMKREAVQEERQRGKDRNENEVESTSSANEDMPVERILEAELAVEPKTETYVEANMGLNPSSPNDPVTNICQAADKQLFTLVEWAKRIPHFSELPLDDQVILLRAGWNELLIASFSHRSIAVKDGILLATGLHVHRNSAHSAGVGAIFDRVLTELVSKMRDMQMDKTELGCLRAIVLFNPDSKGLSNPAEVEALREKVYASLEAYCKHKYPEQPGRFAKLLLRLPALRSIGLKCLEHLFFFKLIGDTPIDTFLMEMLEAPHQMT

[2] = target: Thyroid hormone receptor beta (Homo sapiens) (UniProt P10828); test: qHTS assay for small molecule antagonists of thyroid hormone receptor beta signaling (AID 588547; active = well fitted inhibition curve with a large enough effect in the signal ratio, with a control signal flat, not every such curve was filed as active; inconclusive = small, poorly fitted or top-dose-only effect, or effect the other way, or a change in a side signal; the % refers to the signal ratio; note: potency is the fitted concentration of half-maximal effect;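 for activity change % (negative = inhibition): cells stimulated with 0.4 nM T3 agonist during compound exposure; % is set by controls: 0 for no effect and ±100 for the full control effect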); conditions: TR-UAS-bla HEK293, beta-lactamase ratio, antagonist mode, 18 h
Chain of UniProt P10828 (P10828 whole entry, looked up): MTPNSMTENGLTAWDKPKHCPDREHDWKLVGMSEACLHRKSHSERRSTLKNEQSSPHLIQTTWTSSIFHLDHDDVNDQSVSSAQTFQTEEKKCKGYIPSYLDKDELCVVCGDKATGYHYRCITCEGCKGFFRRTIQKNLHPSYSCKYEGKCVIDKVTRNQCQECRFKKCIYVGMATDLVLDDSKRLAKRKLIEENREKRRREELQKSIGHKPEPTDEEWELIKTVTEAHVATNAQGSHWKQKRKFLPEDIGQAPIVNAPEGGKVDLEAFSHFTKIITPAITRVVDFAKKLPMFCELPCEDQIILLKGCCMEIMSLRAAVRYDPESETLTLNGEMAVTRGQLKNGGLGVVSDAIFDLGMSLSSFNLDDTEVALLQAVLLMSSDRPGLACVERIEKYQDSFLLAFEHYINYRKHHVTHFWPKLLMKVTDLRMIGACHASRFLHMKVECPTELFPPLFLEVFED
How it was run: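 TR-UAS-bla GripTite HEK293 cells in 2% charcoal/dextran FBS medium; compounds 0.59 nM to 92 uM with T3 at 0.4nM final, 18 h at 37 C. Beta-lactamase read by CCF4 fluorescence (460/530 nm); Hill fits gave IC50 and efficacy.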

[3] = qHTS assay for small molecule agonists of the antioxidant response element (ARE) signaling pathway (AID 651741; active = well fitted activation curve with a large enough effect in the signal ratio; inconclusive = small, poorly fitted or top-dose-only effect, or effect the other way, or a change in a side signal; the % refers to the signal ratio; note: potency is the fitted concentration of half-maximal effect; for activation: % of control where 0% means no effect); conditions: HepG2 ARE-bla reporter, beta-lactamase FRET ratio, 16 h; activation: at 96 µM (top of the series) unless noted
How it was run: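 Stably integrated ARE-beta-lactamase reporter HepG2 cells; 16 h compound incubation, 37 C; LiveBLAzer FRET substrate 2 h at room temperature; fluorescence intensity.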

[4] = qHTS assay for small molecule activators of the p53 signaling pathway (AID 651743; active = well fitted activation curve with a large enough effect in the signal ratio, not every such curve was filed as active; inconclusive = small, poorly fitted or top-dose-only effect, or a change in a side signal; the % refers to the signal ratio; note: potency is the fitted concentration of half-maximal effect); conditions: HCT-116 p53RE-bla, beta-lactamase FRET ratio, 16 h; activation: stronger effect = higher value
How it was run: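 Following 16 hours of compound exposure at 37 C, HCT-116 cells bearing the p53RE-bla reporter were loaded with LiveBLAzer B/G FRET substrate for 2 hours at room temperature and fluorescence intensity was recorded.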

[5] = Cellular Toxicity (caspase-3) SHSY5Y (AID 657); conditions: SH-SY5Y caspase-3 activation, DMSO zero, 10 µM staurosporine = 100%; at 91.7 µM (top of the series)
How it was run: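 SH-SY5Y human neuroblastoma cells (1500/well) were treated with compounds for 16 h at 37 °C, then Caspase-Glo 3/7 luminescence was read after 1 h at room temperature. Data normalized to DMSO and 10 uM staurosporine; AC50 from Hill fits.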

[6] = Cell Viability - LYMP2-011 (AID 969);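 note: 0% = DMSO only and full inhibition = 92 µM tetraoctylammonium bromide; nearly all actives have a fitted effect of over 60% in size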
How it was run: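 In this qHTS cytotoxicity format, compounds are tested across concentrations on human lymphoblastoid cells in complete medium for 24 hours at 37 C. Viability is taken as cellular ATP measured by luciferase luminescence.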

[7] = Cell Viability - LYMP2-012 (AID 982); conditions: LYMP2-012 lymphoblastoid cell viability qHTS; activity change, negative = cytotoxicity: at 92.2 µM (top of the series);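 note: cellular ATP by luciferase luminescence where a drop means cytotoxicity; cells exposed to compound for one day before reading; 0% = DMSO only and full loss = 92 µM tetraoctylammonium bromide; nearly all actives have a fitted effect of over 55% in size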
[8] = qHTS assay to identify small molecules that stimulate interleukin-8 (IL-8) secretion (AID 651758; active = well fitted activation curve with a large enough effect in the signal ratio; inconclusive = small, poorly fitted or top-dose-only effect, or effect the other way, or a change in a side signal; the % refers to the signal ratio; note: 0% is about no effect); conditions: HTRF ratio (665/615); activation: at 92.2 µM (top of the series)
How it was run: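 Compounds are added to THP-1 cells (2000 per well) and left 16 hrs at 37 C. A labeled anti-IL-8 antibody pair is then added, and IL-8 secretion is measured by time-resolved FRET after 1-3 hrs at room temperature.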

[9] = MultiTox-Fluor Cytotoxicity Assay - LYMP1-002 - Dead Cells (AID 960); conditions: LYMP1-002 lymphoblastoid cells, dead-cell protease fluorescence; cytotoxicity (dead cells): at 46.1 µM (top of the series);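 note: 0% = DMSO and 100% = tetraoctylammonium bromide; nearly all actives have a fitted effect of over 60% in size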
How it was run: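 Cells were plated, rested 5 hr, then treated with compound dilution series for 16 hr at 37 C. After adding substrate reagent and 60 min at room temperature, dead-cell protease fluorescence gave concentration-response curves fitted by the Hill equation.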

[10] = Cell Viability - LYMP2-005 (AID 967);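 note: plate controls were DMSO only for no effect and 92 µM tetraoctylammonium bromide control for full effect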
How it was run: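 CellTiter-Glo luminescence (cellular ATP) read-out; LYMP2-005 lymphoblastoid cells, 2500/well, 5 h pre-incubation, then 24 h compound exposure at 37 C in complete medium. Tetraoctylammonium bromide positive control; AC50 by standard Hill fit.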

[11] = Cell Viability - LYMP2-021 (AID 974);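 note: compound exposure lasts 24 hours at 37 °C; % is set by controls: 0 for no effect and ±100 for the full control effect; nearly all actives have a fitted effect of over 55% in size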
How it was run: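 Loss of cellular ATP, measured with a luciferase-based CellTiter-Glo readout, serves as the toxicity signal in human lymphoblastoid cells treated for 24 hours at 37 C. Potency is reported as AC50 from a standard Hill model.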

[12] = target: Peroxisome proliferator-activated receptor gamma (Homo sapiens) (UniProt P37231); test: qHTS assay for small molecule antagonists of peroxisome proliferator-activated receptor gamma signaling (AID 588537; active = well fitted inhibition curve with a large enough effect in the signal ratio, with a control signal flat, not every such curve was filed as active; inconclusive = small, poorly fitted or top-dose-only effect, or effect the other way, or a change in a side signal; the % refers to the signal ratio; note: potency is the fitted concentration of half-maximal effect;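 note: reporter cells co-stimulated with 50 nM rosiglitazone agonist during compound treatment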; for activity, negative = inhibition: % of control where 0% means no effect); conditions: HEK293 PPARg-UAS-bla, beta-lactamase ratio, antagonist mode; activity, negative = inhibition: at 76.8 µM (top of the series)
How it was run: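 Fluorescence at 460 and 530 nm (405 nm excitation) reported beta-lactamase cleavage of CCF4 after 2 h room-temperature loading. HEK293 reporter cells in 1% charcoal/dextran-treated FBS had received compound and rosiglitazone for 16 h.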

[13] = target: Vitamin D3 receptor (Homo sapiens) (UniProt P11473); test: qHTS assay for small molecule agonists of vitamin D receptor signaling (AID 588543; calls by dose curve; note: potency is the fitted concentration of half-maximal effect); conditions: HEK293T VDR-UAS-bla, beta-lactamase ratio, 16 h; activation: at 76.8 µM (top of the series)
How it was run: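 GeneBLAzer VDR-UAS-bla HEK293T cells in 2% charcoal-stripped FBS medium were dosed with compound titrations for 16 h at 37 °C; CCF4 β-lactamase readout (405 nm ex, 460/530 nm em). EC50 and efficacy from Hill fits, normalized to 50 nM calcitriol (100%) and DMSO (0%).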

[14] = target: Retinoic acid receptor RXR-alpha (Homo sapiens) (UniProt P19793); test: qHTS assay for small molecule antagonists of retinoid X receptor alpha signaling (AID 588546; active = well fitted inhibition curve with a large enough effect in the signal ratio, with a control signal flat, not every such curve was filed as active; inconclusive = small, poorly fitted or top-dose-only effect, or effect the other way, or a change in a side signal; inactive = no such curve, though single readings can be large or run the other way; the % refers to the signal ratio; note: potency is the fitted concentration of half-maximal effect;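 for max response: cells stimulated with 9-cis-retinoic acid as agonist; % is set by controls: 0 for no effect and ±100 for the full control effect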); conditions: HEK293T RXRa-UAS-bla, beta-lactamase ratio, antagonist mode
How it was run: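 Beta-lactamase reporter inhibition, read as CCF4 fluorescence ratio (ex 405, em 460/530 nm) after 2 h at RT. HEK293T UAS-bla cells, 2500/well, were stimulated with 9-cis-RA at 500 or 100 nM final alongside test compound for 18 h at 37 C.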

[15] = qHTS assay for small molecule activators of the nuclear factor-kappa B (NF-kB) signaling pathway (AID 651749; active = well fitted activation curve with a large enough effect in the signal ratio; inconclusive = small, poorly fitted or top-dose-only effect, or a change in a side signal; the % refers to the signal ratio; note: potency is the fitted concentration of half-maximal effect); conditions: NF-kB-bla ME-180 cells, beta-lactamase FRET ratio, 16 h; activation: stronger effect = higher value
How it was run: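 In this qHTS format, compounds acting as activators increase NF-kB-driven beta-lactamase in ME-180 cells, measured as disrupted FRET after 16 hr exposure at 37C and 5% CO2.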

[16] = qHTS assay for small molecule agonists of the antioxidant response element (ARE) signaling pathway measured by Nrf2-dependant transcriptional activity (AID 720636; active = well fitted curve in the direction sought with a large enough effect in the repeat runs; inconclusive = weak or mixed curves; inactive = no such curve, though single readings can be large; an effect the other way counts as inactive or inconclusive; note: potency is the fitted concentration of half-maximal effect;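 for activation: HepG2 cells with an ARE-driven luciferase reporter; % of control where 0% means no effect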)
How it was run: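 Cells: ARE-luc HepG2 with Nrf2-responsive luciferase. Medium contained 1% dialyzed FBS. Compound exposure lasted 16 hr at 37 C and 5% CO2, followed by ONE-Glo luciferase detection.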

[17] = MultiTox-Fluor Cytotoxicity Assay - LYMP1-001 - Live Cells (AID 947); note: potency is the fitted concentration of half-maximal effect
[18] = Cell Viability - LYMP1-003 - Assay at 24 hr (AID 963);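 note: plate controls were DMSO only for no effect and tetraoctylammonium bromide positive control for full effect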
How it was run: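 Cytotoxicity is scored as a concentration-dependent fall in ATP-linked luciferase signal in human lymphoblastoid LYMP1-003 cells treated 24 hr at 37 C in complete culture medium.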

[19] = Cell Viability - LYMP2-003 (AID 965);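 note: potency is the fitted concentration of half-maximal effect; cells exposed to compounds for 24 h before reading; nearly all actives have a fitted effect of over 50% in size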
How it was run: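 Human lymphoblastoid cells (2500/well) were pre-incubated 5 hr at 37 C, then exposed to compounds over a concentration range for 24 hr at 37 C. Intracellular ATP was read by CellTiter-Glo luminescence; AC50 came from Hill-equation fits.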

[20] = qHTS assay for small molecule disruptors of the mitochondrial membrane potential - 1 hr assay (AID 651754; calls by dose curve; note: % is set by controls: 0 for no effect and ±100 for the full control effect; nearly all actives have a fitted effect of over 35% in size); conditions: ratio change, negative = depolarisation: at 92.2 µM (top of the series)
How it was run: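 Loss of mitochondrial potential shifts the cationic dye from red mitochondrial aggregates to green cytoplasmic monomers. Cells (HepG2) are treated with compound for 1 hr before a 30 min dye incubation at 37C.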

[21] = Cell Viability - LYMP2-017 (AID 972); note: % is set by controls: 0 for no effect and ±100 for the full control effect; nearly all actives have a fitted effect of over 55% in size
How it was run: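 Cytotoxicity is scored as a concentration-dependent drop in cellular ATP in a human lymphoblastoid line after 24 hr treatment at 37 C. Values are AC50s from Hill-equation modelling.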

[22] = Cell Viability - LYMP2-023 (AID 975);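 note: plate controls were DMSO only for no effect and 92 µM tetraoctylammonium bromide control for full effect; nearly all actives have a fitted effect of over 55% in size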
How it was run: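 Steps: seed 2500 human lymphoblastoid cells per well, incubate 5 hr at 37 C, add compound for 24 hr at 37 C, add CellTiter-Glo, hold 30 min at room temperature, read luminescence. AC50 derived by Hill modelling.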
Tags give direction and shape of the fitted curve or compound fluorescence and quenching.

C=CC1(C)OC(=O)N(c2cc(Cl)cc(Cl)c2)C1=O (configuration not stated)
Potency [1]: inconclusive [activator, single point]
activity change % (negative = inhibition) [2]: inconclusive: 3.42%
Potency [3]: inconclusive [activator, partial curve, poor fit]
Potency [4]: inconclusive [side channel, falling, partial curve, poor fit]

Cc1coc2c1CCC(C)C2 (configuration not stated)
caspase-3 activation [5]: inactive: 1.03%
Potency [6]: inactive
Potency [7]: inactive
Potency [1]: inactive
activity change % (negative = inhibition) [2]: inactive: 22.1%
Potency [3]: inconclusive [activator, single point]
Potency [8]: inactive

ClC(Cl)C(Cl)Cl
Potency [9]: inactive
Potency [10]: inactive
Potency [11]: inactive
activity, negative = inhibition [12]: inconclusive: 4.29%
Potency [3]: inactive
activation [8]: inconclusive: 5.1%

CC(C)(C)N(NC(=O)c1ccc(Cl)cc1)C(=O)c1ccccc1
Potency [13]: inconclusive [side channel, falling, full curve, poor fit]
Potency [1]: inactive
Potency [2]: inconclusive [side channel, falling, full curve, poor fit]
Potency [3]: inactive

CC(C)C(C(=O)OC(C#N)c1cccc(Oc2ccccc2)c1)c1ccc(Cl)cc1 (configuration not stated)
Potency [1]: inconclusive [inhibitor, partial curve, poor fit]
Potency [14]: inconclusive [inhibitor, partial curve, poor fit]
Potency [2]: inconclusive [cytotoxic, side channel, full curve, poor fit]
Potency [15]: inconclusive [side channel, falling, partial curve]
Potency [16]: inactive

Clc1ccc(C(Cl)(Cl)Cl)c(Cl)c1
Potency [17]: inconclusive [cytotoxic, full curve, poor fit]
Potency [18]: inactive
Potency [12]: inactive
activation [8]: inconclusive: -0.023%

COCC(=O)N(c1c(C)cccc1C)N1CCOC1=O
max response [14]: inactive: 4.82%
Potency [2]: inconclusive [side channel, falling, full curve, poor fit]
Potency [3]: inactive

c1nc[nH]n1
Potency [19]: inconclusive [rising, single point]
Potency [10]: inactive
activity, negative = inhibition [12]: inconclusive: -17.3%
Potency [3]: inconclusive [activator, partial curve]
Potency [20]: inactive
activation [8]: inconclusive: 4.1%

CCBr
Potency [17]: inconclusive [cytotoxic, single point]
Potency [10]: inactive
Potency [21]: inactive
Potency [22]: inactive
Potency [1]: inactive
Potency [3]: inactive
activation [8]: inconclusive: -6.93%
Potency [16]: inconclusive [activator, partial curve, poor fit]

O=C(O[C@@H]1Cc2c(O)cc(O)cc2O[C@@H]1c1cc(O)c(O)c(O)c1)c1cc(O)c(O)c(O)c1
Potency [12]: inconclusive [inhibitor, partial curve, poor fit]
Potency [2]: inconclusive [activator, single point]
Potency [3]: inconclusive [inhibitor, partial curve, poor fit]
Potency [15]: active: 12.6 µM
Potency [16]: inconclusive [activator, partial curve, poor fit]
